Values joined by “and” are separate entries in the source; they are usually repeats but may differ in a detail not shown here. Equal entries are not always repeated. Among all 16,000 compounds or so, about 40 (0.2%) were called active. Another 1% or so got no clear call; they are omitted. The call rests on the fitted dose curve; in most records, active means well fitted activation curve with a large enough effect; inconclusive means small, poorly fitted or top-dose-only effect, or another doubt; inactive means no such curve, though single readings can be large or run the other way. Some of the results follow. More than one record can exist for a structure, and the calls need not agree.
On the % scale 0 is the no-effect control and ±100 the full control effect; potency means the concentration at half of the fitted maximal effect.

The target in this experiment is Rap guanine nucleotide exchange factor 4 (Homo sapiens) (UniProt Q8WZA2). As to the kind of experiment: Validation qHTS for agonist of cAMP-regulated guanine nucleotide exchange factor 4 (EPAC2).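 On activation: exchange makes BODIPY-GDP fluorescence drop when released from Rap1B; series mostly up to about 150 µM.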 Particulars: EPAC2 Rap1B BODIPY-GDP exchange, fluorescence; activation: active compounds read high. An outline of the steps: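 Signal normalized against 6.5 mM cAMP as agonist control. Mix of EPAC2 (100 nM), RAP1B-BODIPY-GDP (250 nM) and GDP (50 uM) was read kinetically at 480/540 nm, every 5 min over 30 min, after 5 min room-temperature incubation with compound.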
UniProt Q8WZA2, sequence (Q8WZA2 whole entry, looked up): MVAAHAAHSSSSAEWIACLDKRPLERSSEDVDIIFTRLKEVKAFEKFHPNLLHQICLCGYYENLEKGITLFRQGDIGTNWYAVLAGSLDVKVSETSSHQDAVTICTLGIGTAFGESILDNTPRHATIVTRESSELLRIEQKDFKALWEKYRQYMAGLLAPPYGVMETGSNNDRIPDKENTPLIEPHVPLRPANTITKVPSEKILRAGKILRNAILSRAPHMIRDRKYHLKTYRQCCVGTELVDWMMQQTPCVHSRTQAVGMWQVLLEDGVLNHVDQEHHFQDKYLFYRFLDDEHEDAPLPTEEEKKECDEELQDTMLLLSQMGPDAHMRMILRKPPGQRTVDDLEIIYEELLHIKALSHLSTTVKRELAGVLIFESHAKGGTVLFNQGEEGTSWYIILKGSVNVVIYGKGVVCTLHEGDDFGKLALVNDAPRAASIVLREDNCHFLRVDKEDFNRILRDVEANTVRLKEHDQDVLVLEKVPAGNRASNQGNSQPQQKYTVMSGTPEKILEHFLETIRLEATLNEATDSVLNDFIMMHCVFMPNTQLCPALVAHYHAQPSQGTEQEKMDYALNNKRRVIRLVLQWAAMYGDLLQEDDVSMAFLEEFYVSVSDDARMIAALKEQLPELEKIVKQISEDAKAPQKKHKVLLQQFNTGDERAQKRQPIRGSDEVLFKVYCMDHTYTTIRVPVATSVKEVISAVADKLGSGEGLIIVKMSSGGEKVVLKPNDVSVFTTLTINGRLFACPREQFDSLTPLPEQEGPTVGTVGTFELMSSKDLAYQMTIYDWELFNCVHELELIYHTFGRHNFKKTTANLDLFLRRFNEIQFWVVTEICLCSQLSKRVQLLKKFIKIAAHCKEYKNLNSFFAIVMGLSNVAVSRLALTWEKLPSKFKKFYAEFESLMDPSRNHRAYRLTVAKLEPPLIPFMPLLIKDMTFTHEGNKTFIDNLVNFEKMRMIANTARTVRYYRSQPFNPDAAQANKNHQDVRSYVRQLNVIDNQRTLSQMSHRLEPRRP
For orientation: qHTS replaces the single test concentration by a dilution series.
On to `C#CCOC(=O)C1=CCCN(C)C1`, for which the activation is inactive: -3.32% and inactive: 6.33% and inactive: -20.9%. For the compound `S=C=S`, the activation was inactive: -25.3%. On the same count and under the same terms, with `CNC(C)CC1CCCCC1` (configuration not stated) the figure was inactive: -9.14%; with `CCS(=O)(=O)C(C)(C)S(=O)(=O)CC`, inactive: -13%.

On to `CC[C@H]1C2CC3[C@@H]4N(C)c5ccccc5[C@]45C[C@@H](C2[C@H]5O)N3[C@@H]1O` (some centres not stated), for which the activation is inactive: -4.23%.

Turning to `c1ccc(CCCN2CCN(CCOC(c3ccccc3)c3ccccc3)CC2)cc1`, the activation is inactive: -7.04% and inactive: 0.897% and inactive: -58.8%. Still for that read-out and setting: for `C[C@@H](C(=O)OC1C[C@H]2CC[C@@H](C1)N2C)c1ccc(Br)cc1` (some centres not stated) the value was inactive: 2.88%. Same read-out and setting: for `CN1CCCC2(CCN(C(=O)Oc3ccccc3)CC2)C1` the value was inactive: -0.392%.

As for `CN(C)CCc1c[nH]c2cccc(OP(=O)(O)O)c12`, the activation was inactive: -2.47%. On the same count and under the same terms, for `O=C(O)/C=C\C(=O)O` the value was inactive: -3.21%; for `c1ccc(N2CC3(CCNCC3)C2)nc1`, inactive: 6.91%.

On to `CCS(=O)CCSP(=O)(OC)OC` (configuration not stated), for which the activation was inactive: -17.9%. Take `CCCn1c(C)c(C(=O)c2ccc3ccccc3c2)c2ccccc21`: the activation was inactive: -43.6%. On the same count and under the same terms, with `C[C@]12CCC(=O)C=C1CC[C@@H]1[C@@H]2CC[C@@]2(C)[C@H]1CC[C@]2(C)O` the figure was inactive: 3.49% and inactive: -16.6%.

On to `CCC(CO)NC(=O)C1C=C2c3cccc4[nH]cc(c34)CC2N(C)C1` (configuration not stated), for which the activation is inactive: -7.16%. Same read-out and setting: for `CCCN1CCc2cccc3c2C1Cc1ccc(O)c(O)c1-3` (configuration not stated) the value was inactive: -1.17%; for `CCCC(=O)OCC[N+](C)(C)C`, inactive: 8.61%. Consider `CN1Cc2c(ccc3c2OCO3)C2C(O)Cc3cc4c(cc3C21)OCO4` (configuration not stated), for which the activation was inactive: 2.91% and inactive: -1.28%. In the case of `c1ccc(C2CC2)c(OCC2=NCCN2)c1`, the activation is inactive: -3.34% [middle of 4 runs]. Turning to `CN1C2CC3CC1C(O3)C2O` (configuration not stated), the activation is inactive: -19.5%. On to `CC[C@H]1C[C@@H]2C[C@H]3c4[nH]c5ccc(OC)cc5c4CCN(C2)[C@@H]13`, for which the activation is inactive: -6.74%. Consider `C[C@]12CCC(=O)C(O)=C1CC[C@@H]1[C@@H]2CC[C@]2(C)C(=O)CC[C@@H]12`, for which the activation was inactive: -31.2%. Consider `O=C(CCl)c1ccc(Oc2ccc(C(=O)CCl)cc2)cc1`, for which the activation was inactive: -22%. As for `ClCCN(CCCl)/C(=C\c1ccccc1)c1ccnc2ccccc12`, the activation was inactive: -5.17%. Take `C[C@]12CCC3C(CC[C@]4(O)CC(O)CC[C@@]34C=O)[C@]1(O)CCC2C1=CC(=O)OC1` (some centres not stated): the activation is inactive: -5.33%. The same measure, in the same setting: for `OC(O)C(Cl)(Cl)Cl` the value was inactive: -39.1%. On to `CNC(C)(C)Cc1ccccc1`, for which the activation is inactive: -4.59% and inactive: -10.7%. Turning to `CCOP(=S)(OCC)Oc1cc(C)nc(C(C)C)n1`, the activation was inactive: -15.5%.

As for `CNC(Cc1c[nH]c2ccccc12)C(=O)O` (configuration not stated), the activation is inactive: -10.9%.

In the case of `CO[C@@H]1C[C@@H](C[C@H]2CC[C@H](C)[C@@H]([C@@H](C)C(=O)O)O2)O[C@]2(O[C@](C)([C@H]3CC[C@@](C)(C4OC([C@H]5O[C@@](O)(CO)[C@H](C)C[C@@H]5C)C[C@@H]4C)O3)C[C@H]2C)[C@@H]1C` (some centres not stated), the activation was inactive: 0.405%. Same read-out and setting: with `COCC(=O)N(c1c(C)cccc1C)C(C)C(=O)OC` (configuration not stated) the figure was inactive: -11.9%. The same measure, in the same setting: for `O=C(Nc1cccc(F)c1)N1CCCC2(CCN(C(=O)Oc3ccccc3)CC2)C1` the value was inactive: -6.89%; for `c1ccc(CCN2CCCC2)cc1`, inactive: -16.7%; for `O=C(O)CCCOc1ccc(Cl)cc1Cl`, inactive: 10.3% and inactive: -0.478%. For `CC(N)(COP(=O)(O)Oc1ccccc1)C(=O)O` (configuration not stated), the activation is inactive: -6.49%. Same read-out and setting: with `O=C(NC(=O)c1ccccc1Cl)Nc1ccc(OC(F)(F)F)cc1` the figure was inactive: -9.02%; with `NCC(CP(=O)(O)O)c1ccc(Cl)cc1` (configuration not stated), inactive: -0.0836% and inactive: 5.67%. On the same count and under the same terms, with `N[C@@H](Cn1cc(I)c(=O)[nH]c1=O)C(=O)O` the figure was inactive: -13.1%.

Turning to `c1cnc(N2CCCC3(CCNCC3)C2)nc1`, the activation is inactive: -19%. Still for that read-out and setting: with `CCCCCc1cc(O)c2c(c1)OC(C)(C)[C@@H]1CCC(C)=C[C@@H]21` the figure was inactive: -22%; with `CN(C(=O)Cc1ccccc1)[C@H](CN1CCCC1)c1ccccc1`, inactive: 1.2% and inactive: 1.86%; with `CCCCCCCCCCCCCCCC[n+]1ccccc1`, inactive: -32.2% and inactive: -9.68%.

For `C=C1C/C(=C/C)C(=O)O[C@@H]2CCN3CC=C(COC(=O)[C@]1(C)O)[C@@H]23`, the activation is inactive: -1.69%. On the same count and under the same terms, with `CC1(C)CC/C(=C/c2ccc(Cl)cc2)C1(O)Cn1cncn1` (configuration not stated) the figure was inactive: -10.6%; with `COc1ccc2c(c1OC)C(=O)O[C@H]2[C@@H]1c2cc3c(cc2CCN1C)OCO3`, inactive: -9.55% and inactive: -25.6%; with `COC(=O)c1cc2c(cn1)[nH]c1ccccc12`, inactive: 15.7%. For `CN[C@H]1C[C@@H](N)[C@H](O)[C@@H](O[C@@H]2O[C@H](CO)[C@H](O)[C@@H]3OC4(O[C@H]23)O[C@H](C(N)CO)[C@H](O)[C@H](O)[C@H]4O)[C@@H]1O` (some centres not stated), the activation is inactive: -10.5% and inactive: 5.63%. Turning to `CC(C)(C)NC[C@@H](O)COc1cccc2[nH]c(C#N)cc12`, the activation was inactive: -22.8%.

In the case of `COc1ccc(CCN)cc1O`, the activation is inactive: 1.85%. Still for that read-out and setting: with `C=C(C)C1Cc2c(ccc3c2OC2COc4cc(OC)c(OC)cc4C2C3=O)O1` (configuration not stated) the figure was inactive: -25.1%; with `CN[C@@]1(c2ccccc2Cl)CCCCC1=O`, inactive: -11.4%.

With `Clc1ccc(C2=CCC[C@H]3CC[C@@H]2N3)cn1`, the activation is inactive: -9.15%. As for `Oc1ccc2c3c1O[C@H]1c4[nH]c5ccccc5c4C[C@]4(O)[C@H](C2)N(CC2CC2)CC[C@@]314`, the activation is inactive: -9.97%. For the compound `c1ccc2cc(CC3=NCCN3)ccc2c1`, the activation was inactive: -13.8%.

Consider `COP(=S)(OC)Oc1ccc(Sc2ccc(OP(=S)(OC)OC)cc2)cc1`, for which the activation was inactive: 12%. The same measure, in the same setting: with `CCCCCCC(=O)CCCCCC/C=C/C[C@@H](O)[C@H](O)[C@@](N)(CO)C(=O)O` the figure was inactive: -19.6% and inactive: -9.23%. `CCC(C)C(=O)OC1C(O)C2C(CN3CC(C)CCC3[C@]2(C)O)C2C[C@]34O[C@@]5(O)C(OC(=O)C(C)(O)C(C)O)CCC3(C)C5C(OC(C)=O)C(OC(C)=O)C4[C@@]21O` (some centres not stated): the activation was inactive: -14.2%.

`CC(C)(C)c1cc(O)ccc1O`: the Potency was active: 56.2 µM and the activation was inactive: -17%.

Regarding `COC[C@H]1OC(=O)c2coc3c2[C@@]1(C)C1=C(C3=O)[C@H]2CCC(=O)[C@@]2(C)C[C@H]1OC(C)=O`, the activation is inactive: -5.52%.

Consider `c1ccc(N2CC3(CCNCC3)C2)cc1`, for which the activation is inactive: -8.62%. For the compound `CCOP(=S)(OCC)Oc1nc(Cl)c(Cl)cc1Cl`, the activation is inactive: 0.282%.

For `C=C1C2CC[C@@]3(C)C(c4ccoc4)OC(=O)C[C@@]13OC1CC(=O)C(C)(C)C(C(OC(C)=O)C(=O)OC)[C@@]12C` (some centres not stated), the activation is inactive: -6.87%.

Consider `c1ccc(N2CC[C@@]3(CCCNC3)C2)nc1`, for which the activation is inactive: -5.15%. Still for that read-out and setting: for `CCCN[C@@H]1CCc2c(OC)cccc2[C@@H]1C` the value was inactive: -6.17% and inactive: 2.28%; for `c1ccc2c(c1)sc1ccccc12`, inactive: 17.5%; for `CC(C)(C)CC(C)(C)c1ccc(O)cc1`, inactive: -64.7% and inactive: -60.4%. In the case of `O=P1(N(CCCl)CCCl)NCCCO1` (configuration not stated), the activation was inactive: -6.39% and inactive: 19.5% and inactive: -56.2%. Take `CCC1/C=C/C=CCC(C)C(O)[C@@](C)(O)C(=O)C(C)C(O)C(C)C(=O)C(C)C(O)C(C)C=CC(=O)O[C@H]2C(C)C(CC1)O[C@]1(CCC(C)C(CC(C)O)O1)C2C` (some centres not stated): the activation was inactive: -14.3%. On the same count and under the same terms, for `CCCn1c(C)c(C(=O)c2cccc3ccccc23)c2ccccc21` the value was inactive: -32.5%; for `CNc1ccc2oc(C[C@@H]3OC4(CC[C@@H]3C)O[C@H]([C@@H](C)C(=O)c3ccc[nH]3)[C@H](C)C[C@H]4C)nc2c1C(=O)O` (some centres not stated), inactive: -9.5%. On the same count and under the same terms, for `NC(=O)CS(=O)C(c1ccccc1)c1ccccc1` (configuration not stated) the value was inactive: -47.7% and inactive: -9.21%; for `CN1C(=O)CCS(=O)(=O)C1c1ccc(Cl)cc1` (configuration not stated), inactive: -4.64% [middle of 4 runs]; for `CN(C)[C@@H]1C(=O)C(C(N)=O)=C(O)[C@@]2(O)C(=O)C3=C(O)c4c(O)cccc4[C@@](C)(O)[C@H]3[C@H](O)[C@@H]12`, inactive: 2.81% and inactive: -13.8%. Same read-out and setting: with `Cc1cccc(Cc2cnc[nH]2)c1C` the figure was inactive: 5.63%; with `O=C(O)[C@@H]1CCN1`, inactive: -4.93%; with `O=C(NC(O)C(Cl)(Cl)Cl)NC(O)C(Cl)(Cl)Cl` (configuration not stated), inactive: -9.26%. As for `C[C@](N)(CCP(=O)(O)O)C(=O)O`, the activation is inactive: -5.22%.

For the compound `CC(N)C(O)c1ccc(O)c(O)c1` (configuration not stated), the activation was inactive: -9.69% and inactive: -19.1%. With `CC(=O)NC1CCSC1=O` (configuration not stated), the activation was inactive: -8.82% and inactive: -10.4%. In the case of `CCN(CC)CCN1C(=O)CN=C(c2ccccc2F)c2cc(Cl)ccc21`, the activation was inactive: -1.68%. Regarding `C[C@]12CCC3C(CC[C@H]4C[C@@H](O)CC[C@]34C)[C@@H]1CCC2=O` (some centres not stated), the activation was inactive: -4.27%. For `CCCCCCCCCC(CC)c1ccc(S(=O)(=O)O)cc1` (configuration not stated), the activation was inactive: -61% and inactive: -38.1%. As to `Oc1ccccc1-c1ccccc1`, the activation is inactive: -7.43%. For the compound `O=CN1CC2CC(C1)c1cccc(=O)n1C2` (configuration not stated), the activation is inactive: 0.195%. Turning to `CNC(=O)Oc1ccccc1OC(C)C`, the activation is inactive: -5.79%. As for `CC(=O)O[C@@H]1CN2CCC1CC2`, the activation is inactive: -7.77%.

For the origin of these results see PubChem BioAssay AID1645887 (National Center for Advancing Translational Sciences (NCATS), 2021).
